# ± gives the standard deviation of the averaged measurements. Whole data set: some 33,000 sequences, median “E-score (dimensionless, -0.5 to 0.5)” near -0.049, cut for the highest 2% near 0.37. Some of the results follow.
# Tested on: T1, PmTbr T-box DNA-binding domain (GST fusion)
# T1 sequence: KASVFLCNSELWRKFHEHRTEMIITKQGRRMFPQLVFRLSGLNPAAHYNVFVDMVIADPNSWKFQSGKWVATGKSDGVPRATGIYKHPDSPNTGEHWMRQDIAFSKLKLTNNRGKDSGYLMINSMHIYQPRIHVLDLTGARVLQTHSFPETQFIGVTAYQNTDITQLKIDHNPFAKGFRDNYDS
# Assay: PBM E-score of 8-mer (E-score (dimensionless, -0.5 to 0.5)); Tbr is Tbrain of the sea star Patiria miniata (Pm) or the sea urchin Strongylocentrotus purpuratus (Sp); higher = stronger binding preference; most listed sequences are background and not binding sites
# Details: the construct has about 5 more residues each side
# In short: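 Expression of GST-fused Tbr T-box DNA-binding domains, each holding the full T-box plus roughly five flanking residues, was carried out in BL21 E. coli at 20 °C, with purification by glutathione affinity chromatography. Universal Agilent arrays made double-stranded by primer extension were incubated with the protein at 200 nM in PBS (pH 7.5), then scanned and quantified. All ungapped 8-mers were scored from probe intensities, and each received an enrichment E-score from the Universal PBM Analysis Suite, averaged over duplicate arrays.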
row,Sequence,PBM E-score of 8-mer
1,AATAAGAG,-0.0489 ± 0.003
2,CCCAAGGG,-0.052 ± 0.028
3,ACCGGGAC,-0.196 ± 0.094
4,GTGACGAA,0.371 ± 0.014
5,TGCGTAAA,0.0147 ± 0.024
6,TATGCTCA,-0.0546 ± 0.004
7,ATGTCCAA,-0.265 ± 0.0044
8,GCTGTGAA,0.3817 ± 0.0019
9,CCTTGCAA,0.0478 ± 0.095
10,ACAGGTTA,0.252 ± 0.022
11,CCCAACCA,-0.23 ± 0.0029
12,ATTCAAAC,-0.113 ± 0.054
13,ACGGGAGA,-0.194 ± 0.0057
14,AGTAGTCG,-0.0926 ± 0.09
15,GTTCACCA,-0.0249 ± 0.026
16,AATTCATC,-0.0277 ± 0.0079
17,AGCCCCAG,-0.138 ± 0.057
18,AATGAGCA,-0.11 ± 0.0056
19,GAAAACCC,-0.0472 ± 0.071
20,GCGAAGAC,0.214 ± 0.063
21,CGTTCTTC,-0.0942 ± 0.024
22,GATAATAA,0.182 ± 0.022
23,CGGAAGTA,-0.162 ± 0.0057
24,CGGGCATC,-0.288 ± 0.031
25,GATATTGC,0.0859 ± 0.048
26,CCCCACCG,-0.0249 ± 0.11
27,GCCGAAGC,-0.122 ± 0.056
28,AGGTGCCG,0.439 ± 0.0092

row,Sequence,PBM E-score of 8-mer
1,CGCTAAAC,0.278 ± 0.0067
2,CAGTAAGC,-0.0795 ± 0.03
3,ATGCCCAG,-0.0727 ± 0.0088
4,CCGTAGAG,-0.112 ± 0.11
5,CCTTATTA,-0.0364 ± 0.039
6,AAGGCATT,-0.0696 ± 0.038
7,CCCCAGAG,-0.096 ± 0.018
8,ACCCACTC,-0.0406 ± 0.049
9,AATTGACT,-0.061 ± 0.02
10,AAAGGTGT,0.478 ± 0.0057
11,CAGGACTC,-0.282 ± 0.029
12,CACGTACC,0.152 ± 0.081
13,ATCGGCCA,-0.138 ± 0.015
14,ACCAGCCA,-0.0411 ± 0.071
15,GACGACGC,0.0696 ± 0.0067
16,CGTGTCAC,0.3865 ± 0.0037
17,ATACGTCA,-0.103 ± 0.071
18,AGCGGTCG,-0.0595 ± 0.095
19,ACCTCCCA,0.206 ± 0.053
20,AAACTTGC,0.122 ± 0.029
21,ATGTTCTA,-0.121 ± 0.063
22,GACTGACC,-0.232 ± 0.052
23,ACCCACAA,-0.026 ± 0.12
24,AGAGCAGC,-0.151 ± 0.09
25,CAACTCGG,-0.003 ± 0.026
26,TCCATTCA,-0.122 ± 0.007
27,GGCTGCTA,0.0299 ± 0.01

# From the supplement of paper PMC4166925
